Source: PubChem BioAssay AID1508623 (National Center for Advancing Translational Sciences (NCATS), 2021)
The whole screen tested about 48,000 compounds, of which about 450 (0.94%) were called active. The inconclusive results got no clear call from the source; some entries with a clear call stand among them for comparison. The call rests on the fitted dose curve; in most records, active means well fitted inhibition curve with a large enough effect; inconclusive means small, poorly fitted or top-dose-only effect; inactive means no such curve, though single readings can be large or run the other way. Potencies beside an inconclusive call are fits to weak or partial responses and may not hold up.

Assay: Primary qHTS for Identification of Small Molecule Inhibitors of Huntingtin Promoter Activity; further: nearly all actives have a fitted effect of over 50% in size
Conditions: HEK293 HTT promoter firefly luciferase reporter (activity 0% = vehicle and -100% = no light), 24 h; series mostly up to 57.5 µM
Summary of the method: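 HEK293 cells carrying firefly luciferase reporters were seeded at 2,500 per well in Opti-MEM and cultured for 24 h. They were then treated with compounds at up to 57.5 uM final for 24 h at 37 degrees C before Dual-Glo luminescence readout.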
Potency means the concentration at half of the fitted maximal effect; tags describe the fitted curve by direction and shape.

Potency, inconclusive:
CCN(C(=O)Cn1c(SCC(=O)Nc2ccc(OC)cc2)nc2ccccc21)c1cccc(C)c1 39.8 µM [inhibitor, single point]
Cc1cc(C)cc(NS(=O)(=O)c2ccc3c(c2)OCC(C(=O)N2CCCC2)O3)c1 (centres undefined) 10 µM [inhibitor, partial curve, poor fit]
Cc1ccccc1CN1CCc2nc(N3CCN(c4ccccn4)CC3)ncc2C1 8.91 µM [inhibitor, partial curve, poor fit]
COc1ccc(N2CCN(CCCNC(=O)c3ccc4nc(CCc5ccccc5)oc4c3)CC2)cc1 39.8 µM [inhibitor, single point]
COc1ccc2c(c1)CC(C(=O)NCCN1CCN(c3cccc(Cl)c3)CC1)CO2 (centres undefined) 22.4 µM [inhibitor, single point]
O=C(c1ccc2c(c1)N(Cc1ccc(F)cc1)CCS2)N1CCN(c2ccccc2)CC1 22.4 µM [inhibitor, partial curve, poor fit]
Cc1nc(Oc2ccccc2C)c2oc3ccccc3c2n1 22.4 µM [inhibitor, partial curve, poor fit]
Cc1ccc(C)c(NC(=O)CCc2nc(-c3ccc(C(C)(C)C)cc3)no2)c1 0.891 µM [inhibitor, full curve, poor fit]
CCC1CCCCN1CCCNC(=O)c1ccc2c(c1)N(Cc1ccccc1F)C(=O)c1ccccc1S2(=O)=O (centres undefined) 31.6 µM [inhibitor, partial curve, poor fit]
CCc1ccc(NC(=O)c2cc(S(=O)(=O)N3CCCC3)ccc2F)cc1 31.6 µM [inhibitor, single point]
Cc1ccc(C(=O)Nc2ccc3c(c2)N(C)C(=O)c2ccccc2S3)cc1 12.6 µM [inhibitor, partial curve, poor fit]
Cc1nc2sccn2c(=O)c1S(=O)(=O)Nc1ccc(N2CCN(S(C)(=O)=O)CC2)cc1 35.5 µM [inhibitor, single point]
O=C(CSc1nc(-c2ccccc2)[nH]c1-c1ccccc1)Nc1ccc2c(c1)OCO2 25.1 µM [inhibitor, partial curve, poor fit]
O=[N+]([O-])c1cc(-c2nc(-c3ccccc3)no2)ccc1N1CCCC1 1.78 µM [inhibitor, partial curve, poor fit]
CCOC(=O)C1CCCN(C(=O)c2c(C)nn(-c3ccc(F)cc3)c2-n2cccc2)C1 (centres undefined) 39.8 µM [inhibitor, single point]
Cc1oc2ccc(O)c(CN3CCCCCC3)c2c1C(=O)Nc1cccc(Cl)c1C 35.5 µM [inhibitor, single point]
Cc1ccc(S(=O)(=O)Nc2cc(Cl)ccc2C(=O)Nc2nc(-c3ccccc3)cs2)cc1 7.69 µM [inhibitor, partial curve]
CCN(CC)CCCNC(=O)c1ccc2c(c1)N(Cc1c(F)cccc1Cl)C(=O)c1ccccc1S2 35.5 µM [inhibitor, partial curve, poor fit]
O=C(NCCc1ccc(Cl)cc1)C(=O)NCC(c1ccco1)S(=O)(=O)c1cccs1 (centres undefined) 20 µM [inhibitor, single point]
COc1ccc(-c2cnc(C)o2)cc1S(=O)(=O)Nc1cccc(C(F)(F)F)c1 28.2 µM [inhibitor, single point]
O=C(Nc1cccc(C(F)(F)F)c1)C1CCN(S(=O)(=O)c2cccc3nsnc23)CC1 39.8 µM [inhibitor, single point]
Cc1cccc(CNC(=O)CCCN2C(=O)c3cccnc3Oc3ccccc32)c1 39.8 µM [inhibitor, single point]
CCc1ccc(N2CC(c3nc4ccccc4n3Cc3ccccc3C)CC2=O)cc1 (centres undefined) 39.8 µM [inhibitor, single point]
CN(C(=O)CSc1nc2ccc(NC(=O)c3ccccc3)cc2s1)c1ccccc1 39.8 µM [inhibitor, single point]
O=C(CSc1oc(-c2cccs2)nc1S(=O)(=O)c1ccccc1)Nc1ccc(F)cc1 15.8 µM [inhibitor, partial curve]
COc1cc(CN(C(=O)c2ccc(C)cc2)c2ccccn2)cc(OC)c1OC 35.5 µM [inhibitor, partial curve, poor fit]
COc1ccc(C(=O)CC2(O)C(=O)N(CCc3ccccc3)c3ccc(Br)cc32)cc1OC (centres undefined) 35.5 µM [inhibitor, partial curve, poor fit]
COc1ccc(S(=O)(=O)N2CCC(c3nnnn3-c3ccccc3)CC2)cc1OC 20 µM [inhibitor, partial curve, poor fit]
Cc1cccc(S(=O)(=O)c2cn(Cc3ccc(F)cc3)c3cc(N4CCOCC4)c(F)cc3c2=O)c1 39.8 µM [inhibitor, single point]

Potency, active:
Cc1ccc2nc(-c3ccc(C)c(NC(=O)Cc4ccccc4)c3)oc2c1 12.6 µM

Potency, inactive:
O=C1CCc2ccc(OCCCCN3CCN(c4cccc(Cl)c4Cl)CC3)cc2N1
CCCCCCCCCCCC1=C(O)C(=O)C=C(O)C1=O
Cc1ccccc1-c1noc(CSc2nc(-c3ccc(F)cc3)cc(=O)[nH]2)n1
CCc1ccccc1NS(=O)(=O)c1ccc2[nH]cc(C(=O)NC3CCCC3)c(=O)c2c1
CC(C)COc1ccc(C(=O)Nc2onc3c2CCCC3)cc1
COc1ccc(-c2noc(-c3ccc(NCc4ccco4)c([N+](=O)[O-])c3)n2)cc1OC
COc1ccc(Cn2c(NCC(C)C)nc3c2c(=O)n(C)c(=O)n3C)cc1
O=C(Cn1nc2c(cc1=O)CCCC2)NCc1ccccc1
CCOCCn1c(=NC(=O)c2ccc3c(c2)OCCO3)sc2cc(OCC)ccc21
